Hit rate of the full screen: of about 120,000 compounds, about 5,300 (4.4%) were called active. Inconclusive results, whose numbers are uncertain, are shown with a selection of clear calls. The call rests on the fitted dose curve; in most records, active means well fitted inhibition curve with a large enough effect; inconclusive means small, poorly fitted or top-dose-only effect; inactive means no such curve, though single readings can be large or run the other way. A potency beside an inconclusive call is a rough fit, not a confirmed value.
Assay: qHTS Primary assay for Inhibitors of Plasmodium falciparum Dd2 growth in vitro; further: nearly all actives have a fitted effect of over 65% in size;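 on activity, negative = inhibition: plate controls were DMSO vehicle for no effect and reference drug for full effect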
Conditions: P. falciparum Dd2 growth, SYBR Green, 72 h; activity, negative = inhibition: at 28.9 µM (top of the series) unless noted; series mostly up to 28.9 µM
Method in brief: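 Infected erythrocytes (Dd2, 0.3% parasitemia, 2.5% hematocrit final) are added to compound in RPMI-1640/Albumax II medium, grown 72 h at 37C in low oxygen, then lysed with saponin/Triton-X containing SYBR Green and read by fluorescence.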
Potency means the concentration at half of the fitted maximal effect; tags describe the fitted curve by direction and shape.

Compound	Potency	activity, negative = inhibition	outcome
COCC(=O)N1CCN2C(=O)c3cc(-c4ccc(OC)cc4)ccc3NC(=O)[C@H]2C1	inconclusive: 31.6 µM [inhibitor, single point]	–	–
CCc1ccc(NC(=O)c2ccc(F)c(S(=O)(=O)N3CCC4(CC3)OCCO4)c2)cc1	inconclusive: 11.2 µM [inhibitor, single point]	–	–
C=CCN1CCN(C(=O)CCc2nc(C3CCCN3C(=O)NCC)no2)CC1 (configuration not stated)	–	inactive: -0.729%	–
Cc1ccc(Nc2ncc(C(=O)N3CCN(c4ccc(F)cc4)CC3)c3ccccc23)cc1Cl	inconclusive: 8.91 µM [inhibitor, partial curve, poor fit]	–	–
COCc1ncc(C)n1CCNC(=O)c1n[nH]c(=O)c2ccccc12	–	inactive: 15.9%	–
COC(=O)c1ccc(CN2C(=O)[C@@H]3C[C@@H](O)CN3C3(CN(CC(C)C)C3)C2=O)cc1	inconclusive: 20 µM [inhibitor, single point]	–	–
COCC1CN(C2CCC2)CC12CCN(C(=O)c1ccc(C)s1)CC2 (configuration not stated)	inconclusive: 12.6 µM [inhibitor, single point]	–	–
CCOc1ccccc1NC(=O)N(Cc1ccc(F)cc1)C1CCN(CC)CC1	inconclusive: 11.2 µM [inhibitor, single point]	–	–
Cc1occc1C(=O)N1CCC2(CC1)CC(c1ccccc1)CN(C)C2 (configuration not stated)	inconclusive: 12.6 µM [inhibitor, partial curve]	–	–
O=C1C(N2CCN(S(=O)(=O)Cc3ccccc3F)CC2)CCN1Cc1ccccn1 (configuration not stated)	inconclusive: 15.8 µM [inhibitor, partial curve, poor fit]	–	–
COc1ccc(NC(=O)c2c(NCc3ccc(N(C)C)cc3)sc3c2CCC3)cc1	inconclusive: 10 µM [inhibitor, single point]	–	–
CC(=O)Nc1ccc(CN2CCN3C(=O)N(Cc4ccc(C)cc4)C[C@H]3C2)cc1	–	–	inactive [at 44.1 µM]
C=CCn1c(-c2ccccc2Cl)cn2cc(C(=O)N3CCCC(O)C3)nc2c1=O (configuration not stated)	inconclusive: 7.94 µM [inhibitor, partial curve, poor fit]	–	–
Cc1nn2c(c1-c1ccccc1OCc1ccccc1)N(Cc1cccnc1)CCC2	inconclusive: 3.16 µM [inhibitor, single point]	–	–
COc1ccc(C(=O)Nc2ccc3c(c2)CN(Cc2cccc(OC)c2OC)C(=O)CO3)cc1	inconclusive: 3.98 µM [inhibitor, single point]	–	–
CCC(=O)N1CCc2sc(C(=O)NCc3ccc(C)cc3)cc2C1	–	–	inactive
O=C1[C@@H]2C[C@@H](O)CN2C2(CN(Cc3ccccc3)C2)C(=O)N1Cc1ccccc1Cl	inconclusive: 31.6 µM [inhibitor, single point]	–	–
O=C1CC(c2ccccc2)N(Cc2ccncc2)CCCN(C(=O)COc2ccccc2)CCN1 (configuration not stated)	inconclusive: 3.98 µM [inhibitor, partial curve]	–	–
Cc1nn(C(C)C(=O)Nc2cccc(F)c2)c(=O)c2c1sc1ccccc12 (configuration not stated)	inconclusive: 14.1 µM [inhibitor, partial curve, poor fit]	–	–
Cc1ccc(Nc2c(-c3ccc(N4CCOCC4)cc3)nc3ncccn23)c(C)c1	inconclusive: 17.8 µM [inhibitor, single point]	–	–
CCCN(Cc1ccncc1)C(=O)c1cnc(-c2ccccn2)[nH]c1=O	active: 12.6 µM	–	–

Compound	Potency	activity, negative = inhibition	outcome
COC(=O)N1CCC2(CC1)C(=O)NN=C2c1ccncc1	–	inactive: 39.4% [at 44.1 µM]	–
CN1C(=O)CCC2(CNC(=O)c3cccc4nccnc34)CCCC=C12 (configuration not stated)	inconclusive: 11.2 µM [inhibitor, single point]	–	–
Cc1ccc(CCCN2CCCC(COc3ccccc3C(=O)NC(C)C)C2)o1 (configuration not stated)	inconclusive: 1 µM [inhibitor, partial curve, poor fit]	–	–
CC(=O)c1ccc(NC(=O)CSc2nnc(NC(=O)NC3CCCCC3)s2)cc1	–	–	inactive
Cc1ccn2c(Nc3ccc(C(C)C)cc3)c(-c3ccsc3)nc2c1	inconclusive: 12.6 µM [inhibitor, single point]	–	–
O=C(c1cc(-c2ccc(O)cc2)n[nH]1)N1CCCC(CCc2ccc(F)cc2)C1 (configuration not stated)	inconclusive: 11.2 µM [inhibitor, partial curve, poor fit]	–	–
CCCCN1C(=O)CC[C@H]2CN(C(=O)C3CCC(OC)CC3)CC[C@H]21 (some centres not stated)	–	inactive: -15.7%	–
CCCNC(=O)N1CCC(c2noc(COc3ccc(F)cc3)n2)C1 (configuration not stated)	–	inactive: -28.6%	–
Cc1cc(C)c(NS(=O)(=O)c2ccc3c(c2)NC(=O)CCS3)c(C)c1	inconclusive: 17.8 µM [inhibitor, single point]	–	–
O=C(C1CCC(=O)N(C2CCCCCC2)C1)N1Cc2ccccc2C1 (configuration not stated)	–	inactive: -12.4%	–
Cc1cc(C)n(Cc2ccc(C(=O)N3CCC(c4noc(-c5cccnc5)n4)C3)o2)n1 (configuration not stated)	inconclusive: 0.316 µM [inhibitor, full curve]	–	–
O=C(Cn1c(-c2cccs2)cc2ccccc21)NCCCN1CCN(c2ccc(F)cc2)CC1	active: 10 µM	–	–
CC1CCCN(Cc2c(O)ccc3c(=O)c(-c4ccccc4Cl)c(C(F)(F)F)oc23)C1 (configuration not stated)	active: 0.891 µM	–	–
COc1ccc(-c2cc(C(=O)NCc3c(C)cc(C)[nH]c3=O)c3c(c2)N(C)CCO3)cn1	inconclusive: 1 µM [inhibitor, full curve, poor fit]	–	–
O=C1CCN(C(=O)C2CCN(C(=O)C3(c4ccccc4)CC3)CC2)CCCCCCN1	–	inactive: 2.53%	–
C#CCN(C)Cc1nc(C2(O)CCN(CCC(C)C)CC2)cs1	inconclusive: 10 µM [inhibitor, partial curve]	–	–
O=C(NC1CCCC1)c1ccc(CSc2nc3cccnc3n2Cc2ccccc2F)cc1	inconclusive: 11.2 µM [inhibitor, single point]	–	–
COc1ccc(S(=O)(=O)N2CCC(c3nnnn3-c3ccccc3)CC2)cc1OC	–	inactive: -19.7%	–
O=C(Nc1cccc(-c2nnc3n2CCCC3)c1)c1cnccn1	inconclusive: 6.31 µM [inhibitor, partial curve, poor fit]	–	–
Cc1cccc(S(=O)(=O)c2cn(Cc3ccc(F)cc3)c3cc(N4CCOCC4)c(F)cc3c2=O)c1	active: 6.31 µM	–	–
O=C(Nc1ccccc1C(F)(F)F)C1CCN(c2nnc(-n3cccc3)s2)CC1	inconclusive: 10 µM [inhibitor, single point]	–	–

From PubChem BioAssay AID1347417 (National Center for Advancing Translational Sciences (NCATS), 2020)
